# The supplement of paper PMC3334620
# Over roughly 33,000 sequences, “E-score (-0.5 to 0.5)” has its median near -0.021; the highest 2% begin near 0.32. The list shows a part of the results.
# Target: T1, Zap1 (UniProt P47043)
# T1 sequence: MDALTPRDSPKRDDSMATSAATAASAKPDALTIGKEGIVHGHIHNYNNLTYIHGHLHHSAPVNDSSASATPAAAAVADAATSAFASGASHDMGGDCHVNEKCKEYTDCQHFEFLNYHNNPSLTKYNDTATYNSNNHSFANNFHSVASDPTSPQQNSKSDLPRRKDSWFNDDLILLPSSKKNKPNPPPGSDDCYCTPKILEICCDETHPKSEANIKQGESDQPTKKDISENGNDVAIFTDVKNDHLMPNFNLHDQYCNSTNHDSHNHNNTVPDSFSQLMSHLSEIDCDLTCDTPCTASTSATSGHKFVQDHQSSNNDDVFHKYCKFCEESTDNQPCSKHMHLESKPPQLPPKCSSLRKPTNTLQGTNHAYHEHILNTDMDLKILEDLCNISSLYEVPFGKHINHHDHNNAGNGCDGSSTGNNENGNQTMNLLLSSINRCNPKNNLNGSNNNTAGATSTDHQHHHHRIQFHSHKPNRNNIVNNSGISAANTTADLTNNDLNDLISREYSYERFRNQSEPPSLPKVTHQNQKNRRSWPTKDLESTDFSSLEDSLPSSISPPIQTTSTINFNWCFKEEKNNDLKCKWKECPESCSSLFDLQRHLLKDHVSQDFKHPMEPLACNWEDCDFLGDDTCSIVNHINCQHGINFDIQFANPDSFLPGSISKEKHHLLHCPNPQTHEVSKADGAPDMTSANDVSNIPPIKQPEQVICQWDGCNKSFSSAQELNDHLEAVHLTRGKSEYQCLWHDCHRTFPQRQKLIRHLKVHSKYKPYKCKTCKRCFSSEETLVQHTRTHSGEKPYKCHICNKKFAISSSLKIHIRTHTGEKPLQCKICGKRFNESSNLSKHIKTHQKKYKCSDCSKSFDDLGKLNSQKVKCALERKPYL
# Assay: PBM E-score (8-mer binding enrichment) (E-score (-0.5 to 0.5)); higher = stronger / more preferred TF binding; most listed sequences are background and not binding sites
# Details: protein concentration: 200 nM; construct: GST-full length
# How it was run: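 Yeast transcription factors, full-length or as DNA-binding domains, were expressed with a GST tag using PURExpress in vitro transcription/translation. At about 100-200 nM they were applied to universal all-10-mer Agilent arrays, double-stranded by primer extension on fresh or once-stripped slides. Fluorescent anti-GST detected bound protein, and masliner normalised the scans. E-scores for ungapped eight-base words, pooled with reverse complements, came from the Universal PBM Analysis Suite.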
row,Sequence,PBM E-score
1,CAGTGCCC,-0.237
2,GAACTAAC,0.0342
3,CGTCGGGC,-0.177
4,CTTATCCC,-0.163
5,CCTTTCCA,0.0518
6,CGATAACC,0.46
7,GCCTCTAA,-0.088
8,GGTCAGAC,0.103
9,ATCCATCA,-0.108
10,GGCGAGAC,-0.127
11,ATTTTGTC,0.0902
12,AAGTTATT,0.222
13,CAGTCGAA,-0.21
14,GATCTGAA,-0.117
15,ACGCTAAA,-0.0724
16,ACCTTCAT,0.123
17,GGCCATCA,0.157
18,ATAAAGTG,0.191
19,CCTAGGAA,0.106
20,GATGTCTA,-0.0324
21,CCTTTACG,0.191
22,AATGGAAT,0.126
23,CTGAAGCC,-0.31
24,CTGACTCA,-0.0719
25,CAGTACGC,-0.0967

row,Sequence,PBM E-score
1,CAATGTGG,-0.0265
2,ACTAGATA,0.115
3,ATAGTTTC,-0.17
4,AAACACGC,-0.0239
5,GACCTCTA,0.318
6,CAAGTAGG,-0.239
7,GACGATCA,-0.0273
8,GTCATAAA,0.208
9,ACGTCGCG,-0.0819
10,GCTTTGGA,0.107
11,AACATCGC,-0.139
12,CAACTCCA,-0.032
13,AATTGGAT,0.0801
14,CTTATTCA,-0.0462
15,TAATAAGA,0.0456
16,ATTAAAAT,0.149
17,ATCCCTGG,0.00394
18,CGGGACTC,-0.0456
19,AGAAATAT,0.127
20,GACGTGGC,-0.238
21,CGGAGTAA,0.0567
22,AATAACTA,0.209
23,CGTCGAGA,0.037
24,CCATTAAG,0.0835
25,AAAACATT,0.012

row,Sequence,PBM E-score
1,GCAATGAC,-0.122
2,CGGTAGTC,0.0423
3,TCCCACAA,0.0902
4,ATGCAAGA,0.0828
5,GAAGTCTA,-0.256
6,ACCAGGCG,-0.0944
7,AGGATAAT,0.0419
8,AACATCTT,-0.134
9,AGCATCGA,-0.0724
10,TGTGCGAA,-0.16
11,AGTACCCA,0.289
12,CTGCTCCC,-0.267
13,TCCTTAAA,0.15
14,AAAAGCTA,-0.0831
15,ATAAAGTA,0.189
16,CACCCTCA,0.257
17,GGGTTTTA,0.284
18,ACGCCCGG,-0.14
19,CTTTACTC,0.0846
20,AAGTCTTG,-0.0824
21,CGGGGCTA,-0.15
22,CATACATG,-0.0908
23,AGAGGAAG,-0.231
24,CTCCAAGC,-0.0893
25,GGGCGCGA,0.182

row,Sequence,PBM E-score
1,CAGCCTCC,-0.307
2,ACTCGCAA,0.0584
3,ATGTTACG,0.0803
4,CCCTCAGC,-0.105
5,AAATCACG,0.0527
6,CCCGCGGC,0.124
7,GGCCTCAA,0.219
8,AGCCCCGG,-0.0664
9,CGTGAGAC,0.138
10,GATCAACA,-0.00318
11,CACGAGCA,-0.176
12,AAACCTGG,0.109
13,TCCGCAGA,-0.00483
14,ATCCGCGC,-0.00778
15,AATCTCGG,-0.0634
16,AACGGCAT,0.039
17,ACAACAGT,-0.0672
18,CAGATGAC,-0.0153
19,ACTCAAAC,0.133
20,GGGGGGTA,-0.0438
21,AACAATTG,-0.0863
22,CTCAGCGC,-0.28
23,GACTTACC,0.066
24,GGCCCCCA,-0.0538
25,CTACTAGC,0.079

row,Sequence,PBM E-score
1,ACGACCCC,0.219
2,GATGCTGA,-0.296
3,GACGCTAC,-0.0985
4,ACGGAAAG,0.0577
5,TGTCACAA,0.0989
6,CTTACCAA,0.0782
7,CTATACCC,0.304
8,ACTAACCT,0.318
9,AATGAATA,0.0228
10,GTACCGCA,0.383
11,CGGACGAG,-0.067
12,GCCTGTCC,-0.2
13,CCAACACG,-0.095
14,ATCTCCGA,-0.19
15,TCTTCACA,0.0396
16,CGCACAAC,0.122
17,ATGAAGCC,0.0509
18,ACTGAGTC,-0.0962
19,CACCTAGC,-0.195
20,GTGATATA,-0.0995
21,GGCCGCGA,0.0539
22,AGGAATTG,-0.0401
23,CAGCTGAA,-0.0287
24,CCGAGTAG,-0.00973
25,ATCCCGGG,0.126

row,Sequence,PBM E-score
1,ATCAGCCC,-0.156
2,CCATATTC,0.0278
3,CAATGTCC,-0.0541
4,ACCTTCGG,0.112
5,GTGTTTCA,0.07
6,CTCGGCGA,-0.172
7,ATGTAACA,0.153
8,AAAGGAAA,0.0895
9,AGGAAGGC,-0.18
10,GCTATAAC,0.215
11,CTTCAGAA,0.193
12,CCCCACCC,0.357
13,CCCTACGC,-0.17
14,GCCTGAAC,-0.215
15,GGGCCACC,0.232
16,AAATCTAA,0.0835
17,AGTTTTGA,-0.0744
18,GCAGCAAA,0.0321
19,ACTCTAAT,0.0165
20,GATCCTCC,-0.328
21,ACTCCAAC,-0.0823
22,GGGCCCAA,0.148
23,CACGTGTC,-0.205
24,CGGGGGGC,-0.277
25,GGGATTGA,-0.176

row,Sequence,PBM E-score
1,GTGCCAGA,-0.276
2,CGGTATAC,-0.079
3,GGTATGCA,0.081
4,AGTGTAAA,0.193
5,TATCTCGA,-0.0269
6,CAGTATGC,-0.176
7,CGCTTGGA,-0.0704
8,GCCTCACC,-0.121
9,GGCTCGAC,-0.28
10,AAGGTTGC,0.343
11,ATCGATGG,0.0383
12,AGAGGCCT,-0.0267
13,ACTCACCT,-0.0726
14,AAAGAGCA,0.0418
15,AGCGCCAA,-0.257
16,CGGGACAG,0.0162
17,GTTGCTCA,-0.0435
18,GAGTTTCC,-0.061
19,ACAGAGTC,-0.197
20,GTTACCAA,0.362
21,CCGAGAGA,0.163
22,CGGACAGC,-0.261
23,ACGCGCGA,0.0553
24,AGTTATAT,0.0232
25,AACTCATA,0.0542

row,Sequence,PBM E-score
1,GTACGAAA,0.134
2,ACTCTAGG,0.0301
3,GAACTATA,0.0416
4,ATTGCCTG,-0.0833
5,GAACATTA,0.0396
6,AGGGCCTG,-0.0732
7,CCATCACA,-0.045
8,CACGGATG,-0.105
9,AACTGATG,0.0405
10,AAAGGGTA,0.415
11,AAGCGCCC,-0.285
12,CAAGGGGA,-0.129
13,TCAAATCA,-0.00999
14,CGAGTCTA,-0.218
15,AAAAACCT,0.286
16,CTGCCCGA,-0.0867
17,CGGTGACC,0.327
18,AGCAACCA,0.0671
19,AAATCGGC,-0.0898
20,AGTATTAG,0.153
21,TACCATCA,0.192
22,AGGGGACC,0.151
23,CGCTTTGA,0.0708
24,ATAATAAA,0.219
25,AACTCGCG,0.124

row,Sequence,PBM E-score
1,ACTAGTCC,-0.2
2,CTAATACC,0.185
3,ATTAGTTG,0.24
4,GCCTACTA,-0.0183
5,GGGTAAGA,0.0973
6,GCGCAAGC,-0.0825
7,ACGCTTAA,0.0144
8,ACACCAGC,-0.271
9,TAGACTCA,-0.1
10,ACTCGGTC,0.0105
11,CACAGCAA,0.178
12,ACTGCTAT,-0.0537
13,CGACGTAA,-0.0764
14,CGACTCAA,-0.0614
15,GTCCCCGA,0.00542
16,ACCGGTAT,0.132
17,AAGGTGGA,0.0564
18,AATGGCGC,-0.189
19,CGGTAAAC,0.0266
